# According to the supplement of paper PMC9174493:
# The other results are listed elsewhere or left out. Single values of this set are uncertain. Values with irradiation are relative to irradiated vehicle.
# Tests used:
# A549-Dual [1] = experiment: NF-kB reporter (SEAP) activity, viability-corrected, relative to vehicle (fold change vs vehicle); higher = more activation of STING-IRF / NF-kB immune response reporter; conditions: 10 µM
# A549-Dual [2] = experiment: ISRE reporter (Lucia luciferase) activity, viability-corrected, relative to vehicle (fold change vs vehicle); higher = more activation of STING-IRF / NF-kB immune response reporter; conditions: 10 µM
# 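Wherever NF-kB reporter (SEAP) activity, viability-corrected, relative to vehicle is given: viability correction based on the alamar blue assay, with concentrations leaving 10% survival or less dropped.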
smiles,measurement,setting,value
CNC.Cl [Dimethylamine hydrochloride],NF-kB reporter,A549-Dual [1]; irradiation: 8 Gy/4 fr,0.976
same,NF-kB reporter,A549-Dual [1]; irradiation: none,0.669
same,ISRE reporter,A549-Dual [2]; irradiation: 8 Gy/4 fr,0.908
same,ISRE reporter,A549-Dual [2]; irradiation: none,0.495
Cc1cccc(C(C)c2cnc[nH]2)c1C.Cl (configuration not stated) [Dexmedetomidine HCl],NF-kB reporter,A549-Dual [1]; irradiation: 8 Gy/4 fr,0.522
same,NF-kB reporter,A549-Dual [1]; irradiation: none,0.821
same,ISRE reporter,A549-Dual [2]; irradiation: 8 Gy/4 fr,0.469
same,ISRE reporter,A549-Dual [2]; irradiation: none,0.538
CC(=O)c1c([O-])cc(C)oc1=O.[Na+] [Sodium dehydroacetate],NF-kB reporter,A549-Dual [1]; irradiation: 8 Gy/4 fr,0.818
same,NF-kB reporter,A549-Dual [1]; irradiation: none,1.1
same,ISRE reporter,A549-Dual [2]; irradiation: 8 Gy/4 fr,0.872
same,ISRE reporter,A549-Dual [2]; irradiation: none,0.882
CCC(COC(=O)c1cc(OC)c(OC)c(OC)c1)(c1ccccc1)N(C)C (configuration not stated) [Trimebutine],NF-kB reporter,A549-Dual [1]; irradiation: 8 Gy/4 fr,0.735
same,NF-kB reporter,A549-Dual [1]; irradiation: none,0.922
same,ISRE reporter,A549-Dual [2]; irradiation: 8 Gy/4 fr,0.766
same,ISRE reporter,A549-Dual [2]; irradiation: none,0.731
Cc1cccc(C(C)c2cnc[nH]2)c1C (configuration not stated) [Dexmedetomidine],NF-kB reporter,A549-Dual [1]; irradiation: 8 Gy/4 fr,0.942
same,NF-kB reporter,A549-Dual [1]; irradiation: none,1.28
same,ISRE reporter,A549-Dual [2]; irradiation: 8 Gy/4 fr,0.871
same,ISRE reporter,A549-Dual [2]; irradiation: none,0.886
CC(C)(C)NCC(O)c1ccccc1Cl.Cl (configuration not stated) [Tulobuterol hydrochloride],NF-kB reporter,A549-Dual [1]; irradiation: 8 Gy/4 fr,1.12
same,NF-kB reporter,A549-Dual [1]; irradiation: none,0.872
same,ISRE reporter,A549-Dual [2]; irradiation: 8 Gy/4 fr,1.12
same,ISRE reporter,A549-Dual [2]; irradiation: none,0.788
COC(=O)c1ccccc1C(=O)OC [Dimethyl phthalate],NF-kB reporter,A549-Dual [1]; irradiation: 8 Gy/4 fr,0.844
same,NF-kB reporter,A549-Dual [1]; irradiation: none,1.17
same,ISRE reporter,A549-Dual [2]; irradiation: 8 Gy/4 fr,0.75
same,ISRE reporter,A549-Dual [2]; irradiation: none,0.982
CN1C2CCC1CC(OC(=O)C(CO)c1ccccc1)C2.CN1C2CCC1CC(OC(=O)C(CO)c1ccccc1)C2.O.O=S(=O)(O)O (configuration not stated) [Atropine sulfate monohydrate],NF-kB reporter,A549-Dual [1]; irradiation: 8 Gy/4 fr,0.796
same,NF-kB reporter,A549-Dual [1]; irradiation: none,1.3
same,ISRE reporter,A549-Dual [2]; irradiation: 8 Gy/4 fr,0.865
same,ISRE reporter,A549-Dual [2]; irradiation: none,0.866
Cl.NCC1(CC(=O)O)CCCCC1 [Gabapentin HCl],NF-kB reporter,A549-Dual [1]; irradiation: 8 Gy/4 fr,0.812
same,NF-kB reporter,A549-Dual [1]; irradiation: none,1.79
same,ISRE reporter,A549-Dual [2]; irradiation: 8 Gy/4 fr,0.622
same,ISRE reporter,A549-Dual [2]; irradiation: none,0.864
COc1ccc(CN2CCNCC2)c(OC)c1OC.Cl.Cl [Trimetazidine dihydrochloride],NF-kB reporter,A549-Dual [1]; irradiation: 8 Gy/4 fr,0.767
same,NF-kB reporter,A549-Dual [1]; irradiation: none,1.18
same,ISRE reporter,A549-Dual [2]; irradiation: 8 Gy/4 fr,0.681
same,ISRE reporter,A549-Dual [2]; irradiation: none,0.699
CCC12C=CCN3CCC4(c5ccc(OC)cc5N(C)C4C(O)(C(=O)OC)C1OC(C)=O)C32 (configuration not stated) [Vindoline],NF-kB reporter,A549-Dual [1]; irradiation: 8 Gy/4 fr,0.768
same,NF-kB reporter,A549-Dual [1]; irradiation: none,0.713
same,ISRE reporter,A549-Dual [2]; irradiation: 8 Gy/4 fr,0.982
same,ISRE reporter,A549-Dual [2]; irradiation: none,0.715
CC(=O)OC1CC(OC2C(O)CC(OC3C(O)CC(OC4CCC5(C)C(CCC6C5CC(O)C5(C)C(C7=CC(=O)OC7)CCC65O)C4)OC3C)OC2C)OC(C)C1OC1OC(CO)C(O)C(O)C1O (configuration not stated) [Lanatoside C],NF-kB reporter,A549-Dual [1]; irradiation: 8 Gy/4 fr,2.18
same,NF-kB reporter,A549-Dual [1]; irradiation: none,2.65
same,ISRE reporter,A549-Dual [2]; irradiation: 8 Gy/4 fr,0.133
same,ISRE reporter,A549-Dual [2]; irradiation: none,0.219
CC1OC(OC2CC(O)C3(CO)C4C(O)CC5(C)C(C6=CC(=O)OC6)CCC5(O)C4CCC3(O)C2)C(O)C(O)C1O.O.O.O.O.O.O.O.O (configuration not stated) [Ouabain],NF-kB reporter,A549-Dual [1]; irradiation: 8 Gy/4 fr,1.79
same,NF-kB reporter,A549-Dual [1]; irradiation: none,1.81
same,ISRE reporter,A549-Dual [2]; irradiation: 8 Gy/4 fr,0.0974
same,ISRE reporter,A549-Dual [2]; irradiation: none,0.207
Cl.Clc1ccc(C(OCCN2CCCCC2)c2ccccc2)cc1 (configuration not stated) [Cloperastine hydrochloride],NF-kB reporter,A549-Dual [1]; irradiation: 8 Gy/4 fr,0.743
same,NF-kB reporter,A549-Dual [1]; irradiation: none,1.33
same,ISRE reporter,A549-Dual [2]; irradiation: 8 Gy/4 fr,0.595
same,ISRE reporter,A549-Dual [2]; irradiation: none,0.877
CCC(COC(=O)c1cc(OC)c(OC)c(OC)c1)(c1ccccc1)N(C)C.O=C(O)/C=C\C(=O)O (configuration not stated) [Trimebutine maleate],NF-kB reporter,A549-Dual [1]; irradiation: 8 Gy/4 fr,0.646
same,NF-kB reporter,A549-Dual [1]; irradiation: none,0.546
same,ISRE reporter,A549-Dual [2]; irradiation: 8 Gy/4 fr,0.683
same,ISRE reporter,A549-Dual [2]; irradiation: none,0.434
CC(=O)CC(C)C [4-Methyl-2-pentanone],NF-kB reporter,A549-Dual [1]; irradiation: 8 Gy/4 fr,1.05
same,NF-kB reporter,A549-Dual [1]; irradiation: none,0.595
same,ISRE reporter,A549-Dual [2]; irradiation: 8 Gy/4 fr,1
same,ISRE reporter,A549-Dual [2]; irradiation: none,0.457
CN(C)C(=O)C(CCN1CCC(O)(c2ccc(Cl)cc2)CC1)(c1ccccc1)c1ccccc1.Cl [Loperamide HCl],NF-kB reporter,A549-Dual [1]; irradiation: 8 Gy/4 fr,1.05
same,NF-kB reporter,A549-Dual [1]; irradiation: none,0.821
same,ISRE reporter,A549-Dual [2]; irradiation: 8 Gy/4 fr,0.933
same,ISRE reporter,A549-Dual [2]; irradiation: none,0.902
CCN(C)C(=O)Oc1cccc(C(C)N(C)C)c1.O=C(O)C(O)C(O)C(=O)O (configuration not stated) [Rivastigmine Tartrate],NF-kB reporter,A549-Dual [1]; irradiation: 8 Gy/4 fr,0.559
same,NF-kB reporter,A549-Dual [1]; irradiation: none,0.553
same,ISRE reporter,A549-Dual [2]; irradiation: 8 Gy/4 fr,0.624
same,ISRE reporter,A549-Dual [2]; irradiation: none,0.641
Cc1cc(C2=NOC(c3cc(Cl)cc(Cl)c3)(C(F)(F)F)C2)ccc1C(=O)NCC(=O)NCC(F)(F)F (configuration not stated) [Fluralaner],NF-kB reporter,A549-Dual [1]; irradiation: 8 Gy/4 fr,0.639
same,NF-kB reporter,A549-Dual [1]; irradiation: none,0.751
same,ISRE reporter,A549-Dual [2]; irradiation: 8 Gy/4 fr,0.754
same,ISRE reporter,A549-Dual [2]; irradiation: none,0.929
O=C(OC1C[N+]2(CCCOc3ccccc3)CCC1CC2)C(O)(c1cccs1)c1cccs1.[Br-] (configuration not stated) [Aclidinium Bromide],NF-kB reporter,A549-Dual [1]; irradiation: 8 Gy/4 fr,0.538
same,NF-kB reporter,A549-Dual [1]; irradiation: none,0.907
same,ISRE reporter,A549-Dual [2]; irradiation: 8 Gy/4 fr,0.603
same,ISRE reporter,A549-Dual [2]; irradiation: none,0.828
O=C/C=C/c1ccccc1 [Cinnamaldehyde],NF-kB reporter,A549-Dual [1]; irradiation: 8 Gy/4 fr,1.31
same,NF-kB reporter,A549-Dual [1]; irradiation: none,1.82
same,ISRE reporter,A549-Dual [2]; irradiation: 8 Gy/4 fr,0.0991
same,ISRE reporter,A549-Dual [2]; irradiation: none,0.327
Cc1cccc(C)c1NC1=NCCCS1.Cl [Xylazine HCl],NF-kB reporter,A549-Dual [1]; irradiation: 8 Gy/4 fr,0.802
same,NF-kB reporter,A549-Dual [1]; irradiation: none,1.26
same,ISRE reporter,A549-Dual [2]; irradiation: 8 Gy/4 fr,0.771
same,ISRE reporter,A549-Dual [2]; irradiation: none,0.83
CC12CCC3C(CCC4CC(=O)CCC43C)C1CCC2O (configuration not stated) [Dihydrotestosterone(DHT)],NF-kB reporter,A549-Dual [1]; irradiation: 8 Gy/4 fr,0.654
same,NF-kB reporter,A549-Dual [1]; irradiation: none,0.506
same,ISRE reporter,A549-Dual [2]; irradiation: 8 Gy/4 fr,0.814
same,ISRE reporter,A549-Dual [2]; irradiation: none,0.593
